In PubChem BioAssay AID1347165 (National Center for Advancing Translational Sciences (NCATS), 2019):
Out of some 220,000 compounds screened, about 5,700 (2.6%) were called active. Inconclusive results, whose numbers are uncertain, are shown with a selection of clear calls. Calls come from the whole dose curve; as a rule, active = well fitted inhibition curve with a large enough effect; inconclusive = small, poorly fitted or top-dose-only effect; inactive = no such curve, though single readings can be large or run the other way. Potencies beside an inconclusive call are fits to weak or partial responses and may not hold up.

Molecular target: Lysine-specific demethylase 5B (Homo sapiens) (UniProt Q9UGL1)
Assay: Primary screen for KDM5B Histone Demethylases FDH-coupled qHTS; note: nearly all actives have a fitted effect of over 70% in size; for activity change, negative = inhibition: 0% is about no effect
Settings: FDH-coupled NADH fluorescence (FDH is formaldehyde dehydrogenase); activity change, negative = inhibition: at 57.7 µM (top of the series) unless noted
Method in brief: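 qHTS format, multiple compound concentrations. Buffer 50 mM HEPES pH 7.5/0.01% Tween-20; 200 nM KDM5BΔAP final; 10 min compound preincubation; substrate-mix levels 12.5 µM peptide, 25 µM α-KG, 0.25 mM NAD⁺; 30 min RT; ΔRFU.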
Potency is the fitted concentration of half-maximal effect; tags give direction and shape of the fitted curve.

Chain of UniProt Q9UGL1 (Q9UGL1 whole entry, looked up): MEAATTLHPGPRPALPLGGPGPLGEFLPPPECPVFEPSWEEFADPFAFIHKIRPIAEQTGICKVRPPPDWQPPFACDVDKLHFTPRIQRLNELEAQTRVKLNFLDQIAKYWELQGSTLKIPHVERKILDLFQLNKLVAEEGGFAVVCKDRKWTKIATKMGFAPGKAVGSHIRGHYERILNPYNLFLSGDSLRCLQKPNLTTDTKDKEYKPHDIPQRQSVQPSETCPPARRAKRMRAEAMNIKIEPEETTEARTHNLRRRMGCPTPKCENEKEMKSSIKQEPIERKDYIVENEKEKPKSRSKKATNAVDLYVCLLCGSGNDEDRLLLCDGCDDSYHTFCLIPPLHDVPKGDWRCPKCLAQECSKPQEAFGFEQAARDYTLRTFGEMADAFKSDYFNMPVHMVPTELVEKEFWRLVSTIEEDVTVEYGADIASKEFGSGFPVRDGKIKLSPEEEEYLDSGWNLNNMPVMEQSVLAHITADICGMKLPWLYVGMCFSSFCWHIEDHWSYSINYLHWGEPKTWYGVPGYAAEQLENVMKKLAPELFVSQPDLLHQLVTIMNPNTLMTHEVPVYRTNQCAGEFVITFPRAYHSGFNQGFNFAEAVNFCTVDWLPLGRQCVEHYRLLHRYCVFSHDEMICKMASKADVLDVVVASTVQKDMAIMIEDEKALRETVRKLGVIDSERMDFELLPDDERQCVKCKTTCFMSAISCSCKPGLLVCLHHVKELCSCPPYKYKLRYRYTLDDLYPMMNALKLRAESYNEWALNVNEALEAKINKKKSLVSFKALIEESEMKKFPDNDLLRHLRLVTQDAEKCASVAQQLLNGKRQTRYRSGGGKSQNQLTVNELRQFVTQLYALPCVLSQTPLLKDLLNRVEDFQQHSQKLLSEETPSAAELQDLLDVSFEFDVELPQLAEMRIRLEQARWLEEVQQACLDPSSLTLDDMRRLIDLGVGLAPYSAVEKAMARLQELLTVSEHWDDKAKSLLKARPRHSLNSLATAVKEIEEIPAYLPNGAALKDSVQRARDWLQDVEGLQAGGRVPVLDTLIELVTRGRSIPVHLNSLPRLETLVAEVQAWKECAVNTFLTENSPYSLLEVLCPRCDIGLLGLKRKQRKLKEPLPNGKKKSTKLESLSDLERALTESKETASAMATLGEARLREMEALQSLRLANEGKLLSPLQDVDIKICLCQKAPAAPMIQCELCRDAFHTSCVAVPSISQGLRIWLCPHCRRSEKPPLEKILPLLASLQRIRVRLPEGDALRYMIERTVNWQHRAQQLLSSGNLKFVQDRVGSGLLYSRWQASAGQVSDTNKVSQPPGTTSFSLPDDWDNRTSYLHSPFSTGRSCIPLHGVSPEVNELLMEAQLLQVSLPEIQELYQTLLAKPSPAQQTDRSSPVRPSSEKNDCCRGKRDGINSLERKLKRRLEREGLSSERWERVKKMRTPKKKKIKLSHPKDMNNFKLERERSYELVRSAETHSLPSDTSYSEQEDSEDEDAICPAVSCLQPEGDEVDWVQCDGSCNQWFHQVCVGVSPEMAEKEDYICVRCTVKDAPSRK

Question: Which Potency does the source give for `CC1=C(C(=O)OCc2ccccc2)C(c2cccc(Cl)c2Cl)CC(=O)N1` (centres undefined) here?
Answer: Its Potency is inconclusive: 1 µM [inhibitor, full curve, poor fit].

Question: With `COCCn1cnc2ccc(-c3cccc(C)c3)nc2c1=O` as the compound, how does the Potency read?
Answer: Its Potency is active: 39.8 µM.

Question: How did the Potency turn out when `N#Cc1ncn(CCC(=O)Nc2c(Cl)cccc2Cl)n1` was run?
Answer: The Potency was “inactive”.

Question: How did the Potency turn out when `COc1cc(OC)c(NC2CCOC2=O)cc1Cl` (centres undefined) was run?
Answer: Its Potency is “inactive”.

Question: For `S=C(NC1CCCCC1)N[C@H]1CO[C@H]2[C@@H]1OC[C@@H]2n1nnnc1Oc1ccc2c(c1)OCO2`, which Potency is on record?
Answer: The Potency was inconclusive: 22.4 µM [inhibitor, partial curve, poor fit].

Question: Which Potency does the source give for `CC(C)NC(=O)c1nc(-c2ccc(Cl)nc2)c2ccccn12` here?
Answer: Its Potency is active: 31.6 µM.

Question: `CN1c2cc(C(=O)NC3CCCCCC3)ccc2C(=O)N2CCCCCC21` (centres undefined) was tested. Which Potency did it give?
Answer: The Potency was inconclusive: 28.2 µM [inhibitor, partial curve, poor fit].

Question: Which Potency does the source give for `CC(=O)Oc1cccc(C(=O)Nc2ccc(-c3nc4ccccc4o3)cc2)c1` here?
Answer: Its Potency is inconclusive: 1.78 µM [inhibitor, partial curve, poor fit].

Question: Which Potency does the source give for `COc1cc(Cl)c(CN2CCC[C@H]2C(=O)O)cc1OC` here?
Answer: Its Potency is inconclusive: 10 µM [inhibitor, partial curve].

Question: How did the Potency turn out when `Cc1ccc(Oc2ccc(S(=O)(=O)N3CCCC3)cn2)c(Br)c1` was run?
Answer: The Potency was “inactive”.

Question: With `COc1ccc(CNC(=O)c2cc3c(N4CCSCC4)nc(C)cn3n2)cc1` as the compound, how does the Potency read?
Answer: The Potency was inconclusive: 14.1 µM [inhibitor, partial curve, poor fit].

Question: `COC(=O)c1sc(NC(=O)/C=C/c2ccc(OC)c(OC)c2)c(C(=O)OC)c1C` was tested. Which Potency did it give?
Answer: Its Potency is inconclusive: 11.2 µM [inhibitor, partial curve, poor fit].

Question: With `CCCn1cc(CNC(=O)c2ccc3c(c2)n(CC)c(=O)c2ccnn23)c(C)n1` as the compound, how does the Potency read?
Answer: The Potency was active: 22.4 µM.

Question: How did the Potency turn out when `O=C(c1ccc2c(c1)OCO2)N1CCN(c2nnc3ccccn23)CC1` was run?
Answer: Its Potency is active: 25.1 µM.

Question: How did the Potency turn out when `COc1ccc(C(=O)Nc2cccc(OCc3cc(=O)n4c5c(sc4n3)CCCC5)c2)cc1` was run?
Answer: The Potency was inconclusive: 12.6 µM [inhibitor, partial curve, poor fit].

Question: For `Fc1cccc(-c2cnc(Nc3cnccn3)c3c2CCO3)c1`, which Potency is on record?
Answer: Its Potency is inconclusive: 31.6 µM [inhibitor, partial curve, poor fit].

Question: Which Potency does the source give for `COc1ccc(CNC(=O)C(C)OC(=O)c2cc(Cl)c[nH]2)cc1` (centres undefined) here?
Answer: The Potency was “inactive”.

Question: `O=C(O)c1ccc(-n2c(/C=C\c3ccc(O)cc3)nc3ccccc3c2=O)cc1` was tested. Which Potency did it give?
Answer: Its Potency is inconclusive: 17.8 µM [inhibitor, partial curve, poor fit].

Question: For `CC(/C=N/Nc1ccc([N+](=O)[O-])cc1[N+](=O)[O-])=C\c1ccco1`, which Potency is on record?
Answer: Its Potency is “inactive”.

Question: How did the Potency turn out when `COc1cc(C(=O)NNC(=S)NC(=O)/C=C/c2ccccc2)cc(OC)c1OC` was run?
Answer: Its Potency is inconclusive: 39.8 µM [inhibitor, single point].

Question: With `Cc1ccc(-c2ccc3nnc(CNC(=O)c4ccc(F)c(F)c4)n3n2)cc1C` as the compound, how does the Potency read?
Answer: The Potency was active: 31.6 µM.

Question: With `O=C(Nc1cccc2cccnc12)NC12CC3CC(CC(C3)C1)C2` as the compound, how does the Potency read?
Answer: The Potency was “inactive”.

Question: How did the activity change, negative = inhibition turn out when `Cc1ccc(NC(=O)Cn2c(=O)n(CCCCC(=O)NCc3ccccc3Cl)c(=O)c3ccccc32)cc1C` was run?
Answer: Its activity change, negative = inhibition is inconclusive: -31.7% [inhibitor].

Question: Which Potency does the source give for `CCNc1nc2c(c(=O)[nH]c(=O)n2C)n1CCOc1ccccc1` here?
Answer: The Potency was “inactive”.

Question: How did the Potency turn out when `O=C(O)C(c1c[nH]c2ccc(Cl)cc12)N1CCN(c2ncc(Br)cn2)CC1` (centres undefined) was run?
Answer: Its Potency is “inactive”.

Question: For `COc1cccc(C(=O)COC(=O)C(CC(=O)c2ccccc2)Nc2ccc(F)cc2)c1` (centres undefined), which Potency is on record?
Answer: The Potency was inconclusive: 31.6 µM [inhibitor, partial curve, poor fit].

Question: How did the Potency turn out when `COc1ccccc1NC(=O)CCc1ncc(-c2ccc(Cl)cc2)o1` was run?
Answer: Its Potency is “inactive”.

Question: For `COCCN1C(=O)[C@@H]2C[C@@H](CN2Cc2ccccc2Cl)Oc2ccccc21`, which Potency is on record?
Answer: The Potency was “inactive”.

Question: Which Potency does the source give for `COc1ccc(NC(=O)c2cccn2-c2nnc(N3CCCCC3)s2)cc1Cl` here?
Answer: Its Potency is inconclusive: 11.2 µM [inhibitor, partial curve, poor fit].

Question: For `Cc1cc(-n2c(SCC(=O)NCC3CCCO3)nc3ccsc3c2=O)ccc1F` (centres undefined), which Potency is on record?
Answer: The Potency was “inactive”.

Question: Which Potency does the source give for `O=C(NC1CCCCCC1)c1ccc(Cn2ccn3nc4c(c3c2=O)CCCC4)cc1` here?
Answer: Its Potency is inconclusive: 25.1 µM [inhibitor, single point].

Question: How did the Potency turn out when `COc1cc(C(=O)OC2/C=C(\C)CCC3OC3(C)CC(O)[C@@H]2C(C)C)cc(OC)c1OC` (some centres undefined) was run?
Answer: Its Potency is “inactive”.

Question: `O=C(Nc1ccccc1F)Oc1cccc(OC(=O)Nc2ccccc2F)c1` was tested. Which Potency did it give?
Answer: Its Potency is inconclusive: 22.4 µM [inhibitor, single point].

Question: Which Potency does the source give for `COc1ccccc1OCCn1c(NC(=O)c2ccco2)nc2ccccc21` here?
Answer: The Potency was “inactive”.

Question: For `CCn1c(=O)c(=O)[nH]c2c(=O)oc3ccc(S(=O)(=O)Nc4ccc(OC)cc4)cc3c21`, which Potency is on record?
Answer: The Potency was inconclusive: 28.2 µM [inhibitor, partial curve, poor fit].

Question: With `CC(=O)N1CCc2ccc(S(=O)(=O)N3CCCc4ccccc43)cc2C1` as the compound, how does the Potency read?
Answer: Its Potency is inconclusive: 22.4 µM [inhibitor, partial curve, poor fit].

Question: How did the Potency turn out when `CCCCNc1nc2c(S(=O)(=O)c3ccc(C)c(C)c3)nnn2c2ccsc12` was run?
Answer: Its Potency is inconclusive: 39.8 µM [inhibitor, single point].

Question: How did the Potency turn out when `COc1ccc(S(=O)(=O)NCC2CCCN(Cc3ccc(-c4ccco4)cc3)C2)cc1` (centres undefined) was run?
Answer: Its Potency is active: 28.2 µM.

Question: Which Potency does the source give for `Cc1ncc2c(c1CNC(=O)c1ccccc1N1CCOCC1)CCNC2` here?
Answer: Its Potency is inconclusive: 28.2 µM [inhibitor, single point].

Question: Which Potency does the source give for `Cc1sc(NC(=O)c2ccco2)c(C(Nc2ccccn2)c2ccccc2)c1C` (centres undefined) here?
Answer: The Potency was inconclusive: 31.6 µM [inhibitor, partial curve, poor fit].

Question: How did the Potency turn out when `COc1ccc(S(=O)(=O)N[C@H]2[C@H](O)[C@H](O)C[C@@H]2c2ccc(C(F)(F)F)cc2)cc1` was run?
Answer: The Potency was “inactive”.

Question: How did the Potency turn out when `O=c1c2nc(-c3ccc(O)c(F)c3)ccc2ncn1Cc1ccccn1` was run?
Answer: Its Potency is inconclusive: 39.8 µM [inhibitor, partial curve, poor fit].

Question: `Cc1cc(Nc2ccc(F)cc2)n2c(nc3ccccc32)c1C#N` was tested. Which Potency did it give?
Answer: The Potency was inconclusive: 2.82 µM [inhibitor, full curve, poor fit].

Question: With `COc1ccc2cc(/C=C(\NC(=O)c3ccccc3)C(=O)NCCCO)c(Cl)nc2c1` as the compound, how does the Potency read?
Answer: The Potency was inconclusive: 35.5 µM [inhibitor, partial curve, poor fit].
